Measured values: the supplement of paper PMC4967469
A lower IC50 marks a more sensitive line; fits outside the tested doses are given as limits. AUC sums up the same curve from the lowest dose to the 256-fold higher top dose; the more sensitive the line, the further below 1. For some of these results: Where the top dose is marked as inferred, it was derived from the fitted curves, not read from the paper. For some of these results: Drugs with an entry number were screened twice under separate entries, and the two screens often disagree.

Legend:
Assay in all cases: Viability of human cancer cell lines after 72 h of drug (GDSC screen)
[1] = compound: CC1(C)CNc2cc(NC(=O)c3cccnc3NCc3ccncc3)ccc21 [AMG-706]; details: top dose 2 µM; top dose inferred
Protocol: (§1)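 Human cancer cell lines in 384-well plates, medium with 10% serum, drug for 72 h over a 256-fold dose range (nine 2-fold or five 4-fold steps up to the top dose). Adherent lines were fixed and stained with the nucleic acid dye Syto60, suspension lines read with resazurin; signal relative to control wells, capped at 0 and 100%. One two-parameter sigmoid per drug and line, fitted in a mixed model over all curves with the slope shared within a line.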

[2] = compound: Cc1ccc(C(=O)N(CCCN)[C@@H](c2nc3cc(Cl)ccc3c(=O)n2Cc2ccccc2)C(C)C)cc1 [SB-715992]; details: top dose 0.128 µM; top dose inferred
Protocol: as §1

[3] = compound: O=C(/C=C/c1cccc(S(=O)(=O)Nc2ccccc2)c1)NO [Belinostat]; details: top dose 20 µM; top dose inferred
Protocol: as §1

[4] = compound: CN1CCN(c2ccc([N+](=O)[O-])c3no[n+]([O-])c23)CC1 [NSC-207895]; details: top dose 20 µM; top dose inferred
Protocol: as §1

[5] = compound: COCC[n+]1c2c(n(Cc3cnccn3)c1C)C(=O)c1ccccc1C2=O [YM155]; details: top dose 5.12 µM
Protocol: as §1

[6] = compound: c1ccc2c(CCNc3ccc(Nc4ccncc4)cc3)c[nH]c2c1 [JNJ-26854165]; details: top dose 10 µM
Protocol: as §1

[7] = compound: Cc1sc2c(c1C)C(c1ccc(Cl)cc1)=N[C@@H](CC(=O)OC(C)(C)C)c1nnc(C)n1-2 [JQ1]
Protocol: as §1

[8] = compound: C[C@]1(O)C[C@@H](c2nc(-c3ccc4ccc(-c5ccccc5)nc4c3)c3c(N)nccn32)C1 [OSI-906]; details: top dose 2.56 µM; top dose inferred
Protocol: as §1

[9] = compound: COC(=O)[C@H](CCSC)NC(=O)c1ccc(NC[C@@H](N)CS)cc1-c1ccccc1 [FTI-277]; details: top dose 1.024 µM; top dose inferred
Protocol: as §1

[10] = compound: CCOc1nc(NC(=O)Cc2cc(OC)ccc2OC)cc(N)c1C#N [JNK Inhibitor VIII]; details: top dose 10 µM; top dose inferred
Protocol: as §1

[11] = compound: CC(=O)O[C@@]12CO[C@@H]1C[C@H](O)[C@@]1(C)C(=O)[C@H](O)C3=C(C)[C@@H](OC(=O)[C@H](O)[C@@H](NC(=O)OC(C)(C)C)c4ccccc4)C[C@@](O)([C@@H](OC(=O)c4ccccc4)[C@H]21)C3(C)C [Docetaxel]; details: top dose 0.0125 µM
Protocol: as §1

[12] = top dose 1 µM, screen: GDSC drug entry 1218, top dose inferred
[13] = top dose 2.56 µM, screen: GDSC drug entry 163

| Cell Line | AUC [1] | IC50 [1] | AUC [2] | IC50 [2] | AUC [3] | IC50 [3] | AUC [4] | IC50 [4] | AUC [5] | IC50 [5] | AUC [6] | IC50 [6] | AUC [7, 12] | IC50 [7, 12] | AUC [7, 13] | IC50 [7, 13] | AUC [8] | IC50 [8] | AUC [9] | IC50 [9] | AUC [10] | IC50 [10] | AUC [11] | IC50 [11] |
| --- | --- | --- | --- | --- | --- | --- | --- | --- | --- | --- | --- | --- | --- | --- | --- | --- | --- | --- | --- | --- | --- | --- | --- | --- |
| NUGC-4 (stomach, adherent) | 0.969 | > 2 µM | 0.964 | > 0.128 µM | 0.439 | 0.851 µM | 0.703 | 4.66 µM | 0.045 | < 0.02 µM | 0.737 | 2.97 µM | 0.986 | > 1 µM | 0.986 | > 2.56 µM | 0.966 | > 2.56 µM | 0.982 | > 1.02 µM | 0.981 | > 10 µM | 0.833 | 0.0081 µM |
| NY (osteosarcoma, adherent) | 0.982 | > 2 µM | 0.989 | > 0.128 µM | 0.948 | > 20 µM | 0.989 | > 20 µM | 0.909 | > 5.12 µM | 0.904 | > 10 µM | 0.986 | > 1 µM | 0.818 | 1.42 µM | 0.953 | > 2.56 µM | 0.988 | > 1.02 µM | 0.968 | > 10 µM | 0.62 | 0.00167 µM |
| OAW-42 (ovary, adherent) | 0.978 | > 2 µM | 0.9 | > 0.128 µM | 0.582 | 2.13 µM | 0.905 | > 20 µM | 0.231 | 0.0491 µM | 0.949 | > 10 µM | 0.966 | > 1 µM | 0.739 | 0.824 µM | 0.967 | > 2.56 µM | 0.986 | > 1.02 µM | 0.976 | > 10 µM | 0.896 | > 0.0125 µM |
| OCUM-1 (stomach, adherent) | 0.954 | > 2 µM | 0.983 | > 0.128 µM | 0.974 | > 20 µM | 0.98 | > 20 µM | 0.982 | > 5.12 µM | 0.964 | > 10 µM |  |  | 0.848 | 2.23 µM | 0.967 | > 2.56 µM | 0.985 | > 1.02 µM | 0.97 | > 10 µM | 0.792 | 0.00635 µM |
| OE21 (oesophagus, adherent) | 0.958 | > 2 µM | 0.973 | > 0.128 µM | 0.576 | 2.17 µM | 0.974 | > 20 µM | 0.19 | 0.0254 µM | 0.778 | 5.69 µM | 0.931 | > 1 µM | 0.538 | 0.212 µM | 0.857 | > 2.56 µM | 0.948 | > 1.02 µM | 0.887 | > 10 µM | 0.604 | 0.00168 µM |
| OSC-20 (head and neck, adherent) | 0.973 | > 2 µM | 0.79 | 0.0692 µM | 0.426 | 0.754 µM | 0.87 | > 20 µM | 0.036 | < 0.02 µM | 0.839 | 8.77 µM | 0.972 | > 1 µM | 0.781 | 1.28 µM | 0.983 | > 2.56 µM | 0.975 | > 1.02 µM | 0.964 | > 10 µM | 0.725 | 0.0039 µM |
